Test results from PubChem BioAssay AID1347073 (National Center for Advancing Translational Sciences (NCATS), 2019).
The campaign covered roughly 45,000 compounds. About 200 (0.44%) were called active. Inconclusive means that the source gave no clear call. Such entries were picked first, then a sample of the others. Calls follow the shape of the dose curve; as a rule, active = well fitted activation curve with a large enough effect; inconclusive = small, poorly fitted or top-dose-only effect; inactive = no such curve, though single readings can be large or run the other way. A potency beside an inconclusive call is a rough fit, not a confirmed value.

test: qHTS of TDP-43 Inhibitors: NCGC Sytravon Library Screen; conditions: yeast TDP-43 toxicity rescue, BacTiter-Glo growth, 24 h; growth rescue (activation): at 46.1 µM (top of the series); also: nearly all actives have a fitted effect of over 55% in size; as to growth rescue (activation): 0% is about no effect
From the text: The goal of this project is to identify new chemical probes capable of reversing the toxicity associated with TDP-43 which is associated with frontotemporal lobar degeneration and amyotrophic lateral sclerosis. These compounds will provide a complementary approach to deciphering the tangled mechanisms of toxicity and protection that we have uncovered through genome-wide genetic screens and are beginning to uncover in a large-scale proteomics analysis with mass spectroscopy. To this end, a miniaturized assay was developed to be screened against the Molecular Libraries Small Molecule Repository (MLSMR) to discover TDP-43 inhibitors. Please note that in the set-up this yeast-based assay compounds that inhibit as TDP-43, have a read-out as activators. NIH Chemical Genomics Center [NCGC] NIH Molecular Libraries Probe Centers Network [MLPCN] Assay Submitter (PI): Susan Lindquist, Whitehead Institute/MIT MLPCN Grant: R21 NS060957
Dispense 2.5 microL yeast galactose medium per 1536-well plate, pin compound, dispense 2.5 microL TDP-43 expressing yeast in galactose medium at OD600=0.02 (pregrown in raffinose medium to mid-log phase) per well, incubate for 24 hr at 30 deg C, and cell growth will be measured using 5 microL of Bactiter/Glo reagent to entire plate and read using Luminescence Protocol in ViewLux.
Potency is read from the fitted curve at half-maximal effect; tags tell the direction and shape of the fitted curve.

SMILES | growth rescue (activation) | Potency
Cc1cc(C)n(-c2nc3ccccc3nc2Nc2ccc(Cl)cc2Cl)n1 | inactive: -2.88% | –
COc1ccc(NC(=O)C2Cc3c(-c4ccccc4Oc4ccccc4)ccnc3O2)cc1OC (stereo not drawn) | – | inconclusive: 35.5 µM [activator, single point]
COc1ccccc1/C=N/NC(=O)CN(C1=NS(=O)(=O)c2ccccc21)c1ccccc1 | inconclusive: -36.3% [activator] | –
C=CCN(CC=C)C(=S)NC(=O)c1ccc([N+](=O)[O-])cc1 | – | inconclusive: 35.5 µM [activator, single point]
CC(C)(C)c1ccc(Cn2c(=O)cnc3ccccc32)cc1 | – | inconclusive: 35.5 µM [activator, single point]
COc1ccc(-c2csc(C(O)c3ccc(F)c(F)c3)n2)cn1 (stereo not drawn) | inconclusive: 118% [activator] | –
Cc1ccc(Nc2c(-c3ccc(Cl)cc3)nc3sccn23)c(C)c1 | – | inconclusive: 25.1 µM [activator, single point]
CCS(=O)(=O)c1ncc(Cl)c(C(=O)Nc2ccc(S(=O)(=O)N3CCC(C)CC3)cc2)n1 | – | inconclusive: 31.6 µM [activator, single point]
O=C(O)c1ccc2nnn(O)c2c1 | – | inconclusive: 15.8 µM [activator, single point]
Cc1ccc(S(=O)(=O)NC(=O)C2(C)CCN2C(=O)C2(c3ccc(Cl)cc3)CCC2)cc1 (stereo not drawn) | – | inconclusive: 14.1 µM [activator, single point]
Cc1ccsc1CN(C(=O)c1oc2ccc(F)cc2c1C)C1CCS(=O)(=O)C1 (stereo not drawn) | – | inconclusive: 25.1 µM [activator, single point]
CC(=O)N1CCC(=NNc2ccnc3cc(Cl)ccc23)CC1 | – | inconclusive: 12.6 µM [activator, single point]
CCC1CCc2nc3sc(C(=O)Nc4ccc(C)cc4)c(N)c3cc2C1 (stereo not drawn) | inactive: 16.3% | –
S=C(NC1CCCC1)N1CCN(c2ccc(Cl)cc2)CC1 | – | inconclusive: 14.1 µM [activator, partial curve, poor fit]
S=C(NCCc1ccccc1)Nc1ccccc1N1CCOCC1 | – | inconclusive: 31.6 µM [activator, single point]
O=C(Nc1ccc(Cl)cc1)N1CCC(CO)(Cc2ccccc2)CC1 | – | inconclusive: 22.4 µM [activator, single point]
COc1cc(NC(=O)Cn2c(=O)n(CC(=O)NCCc3ccc(OC)c(OC)c3)c(=O)c3sccc32)cc(OC)c1 | inactive: -4.63% | –
Cc1noc(C)c1CSCC(=O)N1CCN(c2ccc([N+](=O)[O-])cc2)CC1 | – | inconclusive: 35.5 µM [activator, single point]
